# Laboratory results: the supplement of paper PMC8728848
# The other results are listed elsewhere or left out.
# B1: UEA-I (Ulex europaeus), P22972 (protein)
# chain: SDDLSFKFKNFSQNGKDLSFQGDASVIETGVLQLNKVGNNLPDETGGIARYIAPIHIWNCNTGEVASFITSFSFFMETSANPKAATDGLTFFLAPPDSPLRRAGGYFGLFEDTKDNDSSYQTVAVEFDTIGSPVNFDDPGFPHIGIDVNRVKSINAERWNKRYGLNNVANVEIIYEASSKTLTASLTYPSDQTSISVTSIVDLKEILPEWVSVGFSGGTYIGRQATHEVLNWYFTSNLINTNS
# Assays:
# Experiment in all cases: glycan array binding signal (z-score within array); higher = stronger binding
# Settings in all cases: glycan notation: IUPAC condensed, linker removed
# [1] = molecular target: GalNAc(a1-3)Gal
# In short: (§1)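 Glycan array data were curated from 3228 arrays in the Consortium for Functional Glycomics database and kept only where the protein sequence was available. Glycan names were converted to IUPAC-condensed notation, and columns mapping to the same glycan were averaged. The binding signal is a within-array Z-score, averaged across arrays of the same protein sequence at different concentrations or buffers and across linkers. Negative Z-scores can be read as non-binding.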
# [2] = molecular target: GalNAc(a1-3)GalNAc
# In short: as §1
# [3] = molecular target: GalNAc(a1-3)GalNAc(a1-3)Gal(a1-4)Gal(b1-4)GlcNAc
# In short: as §1
# [4] = molecular target: GalNAc(a1-3)GalNAc(b1-3)Gal(a1-4)Gal(b1-4)Glc
# In short: as §1
# [5] = molecular target: GalNAc(b1-3)Gal
# In short: as §1
# [6] = molecular target: GalNAc(b1-3)Gal(a1-4)Gal(b1-4)GlcNAc
# In short: as §1
# [7] = molecular target: GalNAc(b1-3)Gal(a1-4)Gal(b1-4)GlcNAc(b1-3)Gal(b1-4)Glc
# In short: as §1
# [8] = molecular target: GalNAc(b1-3)Gal(a1-6)Gal(b1-4)Glc
# In short: as §1
# [9] = molecular target: GalNAc(b1-3)GalNAc
# In short: as §1
# [10] = molecular target: GalNAc(b1-3)GlcNAc
# In short: as §1
# [11] = molecular target: GalNAc(b1-4)Gal(b1-4)Glc
# In short: as §1
# [12] = molecular target: GalNAc(b1-4)GlcNAc
# In short: as §1
# [13] = molecular target: GalNAc(b1-4)GlcNAc(b1-2)Man
# In short: as §1
# [14] = molecular target: GalNAc(b1-4)GlcNAc(b1-2)Man(a1-3)[GalNAc(b1-4)GlcNAc(b1-2)Man(a1-6)]Man(b1-4)GlcNAc(b1-4)GlcNAc
# In short: as §1
# [15] = molecular target: GalNAc(b1-4)GlcNAc(b1-3)GalNAc(b1-4)GlcNAc
# In short: as §1
# [16] = molecular target: GalNAc(b1-4)GlcNAc6S
# In short: as §1
# [17] = molecular target: GalNAc(b1-6)GalNAc
# In short: as §1
# [18] = molecular target: GalNAc3S(b1-4)GlcNAc
# In short: as §1
# [19] = molecular target: GalNAc3S(b1-4)GlcNAc3S
# In short: as §1
# [20] = molecular target: GalNAc3S(b1-4)[Fuc(a1-3)]GlcNAc
# In short: as §1
# [21] = molecular target: GalNAc4S6S(b1-4)GlcNAc
# In short: as §1
# [22] = molecular target: GalNAc6S(b1-4)GlcNAc
# In short: as §1
# [23] = molecular target: Glc(a1-4)Glc
# In short: as §1
# [24] = molecular target: Glc(a1-4)Glc(a1-4)Glc(a1-4)Glc
# In short: as §1
# [25] = molecular target: Glc(a1-6)Glc(a1-6)Glc
# In short: as §1
# [26] = molecular target: Glc(a1-6)Glc(a1-6)Glc(a1-6)Glc
# In short: as §1
# [27] = molecular target: Glc(b1-4)Glc
# In short: as §1
# [28] = molecular target: Glc(b1-6)Glc
# In short: as §1
# [29] = molecular target: GlcA(b1-3)Gal
# In short: as §1
# [30] = molecular target: GlcA(b1-3)GlcNAc
# In short: as §1
# [31] = molecular target: GlcA(b1-6)Gal
# In short: as §1
# [32] = molecular target: GlcA3S(b1-3)Gal(b1-4)GlcNAc(b1-2)Man
# In short: as §1
# [33] = molecular target: GlcA3S(b1-3)Gal(b1-4)GlcNAc(b1-3)Gal(b1-4)Glc
# In short: as §1
# [34] = molecular target: GlcNAc(a1-3)Gal(b1-4)GlcNAc
# In short: as §1
# [35] = molecular target: GlcNAc(a1-4)Gal(b1-3)GlcNAc
# In short: as §1
# [36] = molecular target: GlcNAc(a1-4)Gal(b1-4)GalNAc
# In short: as §1
# [37] = molecular target: GlcNAc(a1-4)Gal(b1-4)GlcNAc
# In short: as §1
# [38] = molecular target: GlcNAc(a1-4)Gal(b1-4)GlcNAc(b1-3)Gal(b1-4)Glc
# In short: as §1
# [39] = molecular target: GlcNAc(a1-4)Gal(b1-4)GlcNAc(b1-3)Gal(b1-4)GlcNAc
# In short: as §1
# [40] = molecular target: GlcNAc(a1-4)Gal(b1-4)GlcNAc(b1-3)Gal(b1-4)GlcNAc(b1-3)Gal(b1-4)GlcNAc
# In short: as §1
# [41] = molecular target: GlcNAc(a1-4)Gal(b1-4)GlcNAc(b1-3)Gal(b1-4)[Fuc(a1-3)]GlcNAc(b1-3)Gal(b1-4)[Fuc(a1-3)]GlcNAc
# In short: as §1
# [42] = molecular target: GlcNAc(a1-6)Gal(b1-4)GlcNAc
# In short: as §1
# [43] = molecular target: GlcNAc(b1-2)Gal(b1-3)GalNAc
# In short: as §1
# [44] = molecular target: GlcNAc(b1-2)Gal(b1-3)GlcNAc
# In short: as §1
# [45] = molecular target: GlcNAc(b1-2)Man(a1-3)[GlcNAc(b1-2)Man(a1-6)]Man(b1-4)GlcNAc(b1-4)GlcNAc
# In short: as §1
binder,measurement,setting,value
B1,glycan array binding signal (z-score),[1],-0.235
same,glycan array binding signal (z-score),[2],-0.249
same,glycan array binding signal (z-score),[3],-0.179
same,glycan array binding signal (z-score),[4],-0.201
same,glycan array binding signal (z-score),[5],-0.183
same,glycan array binding signal (z-score),[6],-0.117
same,glycan array binding signal (z-score),[7],-0.168
same,glycan array binding signal (z-score),[8],-0.21
same,glycan array binding signal (z-score),[9],-0.188
same,glycan array binding signal (z-score),[10],-0.248
same,glycan array binding signal (z-score),[11],-0.146
same,glycan array binding signal (z-score),[12],-0.162
same,glycan array binding signal (z-score),[13],0.266
same,glycan array binding signal (z-score),[14],0.872
same,glycan array binding signal (z-score),[15],-0.071
same,glycan array binding signal (z-score),[16],-0.297
same,glycan array binding signal (z-score),[17],-0.272
same,glycan array binding signal (z-score),[18],-0.171
same,glycan array binding signal (z-score),[19],-0.324
same,glycan array binding signal (z-score),[20],-0.269
same,glycan array binding signal (z-score),[21],-0.339
same,glycan array binding signal (z-score),[22],-0.073
same,glycan array binding signal (z-score),[23],-0.167
same,glycan array binding signal (z-score),[24],-0.176
same,glycan array binding signal (z-score),[25],-0.204
same,glycan array binding signal (z-score),[26],-0.151
same,glycan array binding signal (z-score),[27],-0.207
same,glycan array binding signal (z-score),[28],-0.198
same,glycan array binding signal (z-score),[29],-0.197
same,glycan array binding signal (z-score),[30],-0.18
same,glycan array binding signal (z-score),[31],-0.186
same,glycan array binding signal (z-score),[32],-0.298
same,glycan array binding signal (z-score),[33],-0.222
same,glycan array binding signal (z-score),[34],-0.032
same,glycan array binding signal (z-score),[35],-0.11
same,glycan array binding signal (z-score),[36],-0.163
same,glycan array binding signal (z-score),[37],0.215
same,glycan array binding signal (z-score),[38],0.251
same,glycan array binding signal (z-score),[39],0.134
same,glycan array binding signal (z-score),[40],0.394
same,glycan array binding signal (z-score),[41],0.074
same,glycan array binding signal (z-score),[42],-0.213
same,glycan array binding signal (z-score),[43],-0.195
same,glycan array binding signal (z-score),[44],-0.65
same,glycan array binding signal (z-score),[45],-0.246
